For 84 variants, enrichment ratio results are on record in a collection of fitness landscapes (doi:10.1126/science.1257360).

Some of the results follow.

First the molecules themselves.
B1: PhoQ; a variant is named by its letters at X, in order, P23837 (parent)
chain: MKKLLRLFFPLSLRVRFLLATAAVVLVLSLAYGMVALIGYSVSFDKTTFRLLRGESNLFYTLAKWENNKLHVELPENIDKQSPTMTLIYDENGQLLWAQRDVPWLMKMIQPDWLKSNGFHEIEADVNDTSLLLSGDHSIQQQLQEVREDDDDAEMTHSVAVNVYPATSRMPKLTIVVVDTIPVELKSSYMVWSWFIYVLSANLLLVIPLLWVAAWWSLRPIEALAKEVRELEEHNRELLNPATTRELTSLVRNLNRLLKSERERYDKYRTTLTDLTHSLKTPLXXLQXXLRSLRSEKMSVSDAEPVMLEQISRISQQIGYYLHRASMRGGTLLSRELHPVAPLLDNLTSALNKVYQRKGVNISLDISPEISFVGEQNDFVEVMGNVLDNACKYCLEFVEISARQTDEHLYIVVEDDGPGIPLSKREVIFDRGQRVDTLRPGQGVGLAVAREITEQYEGKIVAGESMLGGARMEVIFGRQHSAPKDE

Variants of B1 are the subject of the test. Kind of test: enrichment ratio after two sorts for PhoP signalling (ratio (wild type AVST 3.29)); higher = more functional. The note with it: with PhoP (E. coli).
In the case of IFHW, the enrichment ratio is at most 0.25.
On to TNRM, for which the enrichment ratio was at most 0.25.
For YHMS, the enrichment ratio was at most 0.25.
In the case of PCES, the enrichment ratio was at most 0.25.
Regarding TQRC, the enrichment ratio is at most 0.25.
In the case of SWPS, the enrichment ratio is at most 0.25.
With RPWF, the enrichment ratio is at most 0.25.
As to RRNQ, the enrichment ratio was at most 0.25.
For WQVD, the enrichment ratio is at most 0.25.
To GDEC belongs at most 0.25; to KMNM, at most 0.25; to FKIV, at most 0.25.
As to PLCA, the enrichment ratio is at most 0.25.
As for KKML, the enrichment ratio was at most 0.25.
Consider ENNM, for which the enrichment ratio was at most 0.25.
With WPKV, the enrichment ratio is at most 0.25.
Turning to SKLR, the enrichment ratio is at most 0.25.
Under QIMN stands at most 0.25.
Consider KLDM, for which the enrichment ratio is at most 0.25.
As to RWRD, the enrichment ratio is at most 0.25.
Take KPAW: the enrichment ratio was at most 0.25.
With HLYD, the enrichment ratio is at most 0.25.
To NSDH belongs at most 0.25; to MPEK, at most 0.25; to LDHW, at most 0.25.
As to CAPL, the enrichment ratio is at most 0.25.
As to DYRL, the enrichment ratio is at most 0.25.
For the variant RPRP, the enrichment ratio was at most 0.25.
Turning to YIWY, the enrichment ratio is at most 0.25.
Consider WPES, for which the enrichment ratio is at most 0.25.
Take HLQR: the enrichment ratio is at most 0.25.
With NGMC, the enrichment ratio was at most 0.25.
PPLF: the enrichment ratio was at most 0.25.
In the case of GYSR, the enrichment ratio is at most 0.25.
In the case of DLAG, the enrichment ratio was at most 0.25.
Under DLYR stands at most 0.25; under MHMA, at most 0.25.
Under RWTF stands at most 0.25; under KTYM, at most 0.25; under HYLN, at most 0.25.
To VIIG belongs at most 0.25; to QEFA, 0.476.
Take AGNG: the enrichment ratio was at most 0.25.
On to SKMT, for which the enrichment ratio stood at 10.8.
As for ETCS, the enrichment ratio was at most 0.25.
Consider MTAN, for which the enrichment ratio is 6.61.
Take WDGI: the enrichment ratio is at most 0.25.
For the variant ILYG, the enrichment ratio was at most 0.25.
With KGSG, the enrichment ratio was at most 0.25.
As to KYGP, the enrichment ratio is at most 0.25.
In the case of IYRM, the enrichment ratio was at most 0.25.
For WFIL, the enrichment ratio was at most 0.25.
To KDPY belongs at most 0.25; to VHHN, at most 0.25; to RNFA, at most 0.25.
Under LFCK stands at most 0.25; under HWWY, at most 0.25; under GKND, at most 0.25.
With EVPA, the enrichment ratio is at most 0.25.
In the case of HMMC, the enrichment ratio was at most 0.25.
On to DEKP, for which the enrichment ratio was at most 0.25.
With TQIH, the enrichment ratio was 2.12.
Under LEND stands at most 0.25; under TASE, 11.3; under YKWV, at most 0.25.
For HALK, the enrichment ratio is at most 0.25.
Regarding QYGQ, the enrichment ratio is at most 0.25.
For MINH, the enrichment ratio is at most 0.25.
Take RTLK: the enrichment ratio is at most 0.25.
Regarding LRTE, the enrichment ratio was at most 0.25.
On to MTYD, for which the enrichment ratio was at most 0.25.
In the case of ADFF, the enrichment ratio was at most 0.25.
Turning to RHIF, the enrichment ratio was at most 0.25.
As to YIPH, the enrichment ratio is at most 0.25.
To SQSQ belongs 8.8; to DRNP, at most 0.25.
Under KQNR stands at most 0.25; under SSDH, at most 0.25; under NNST, at most 0.25.
PVEP: the enrichment ratio is at most 0.25.
Consider PLAI, for which the enrichment ratio was at most 0.25.
To GGHN belongs at most 0.25.
For the variant PNKS, the enrichment ratio is at most 0.25.
Under KPRM stands at most 0.25.
